Measurements from the supplement of paper PMC3334620.
In all, about 33,000 sequences were measured (“E-score (-0.5 to 0.5)”: median about -0.011, highest 2% from about 0.28 on). Some of the results follow.

Molecular target: T1, Gcr1 (UniProt P07261)
T1 sequence: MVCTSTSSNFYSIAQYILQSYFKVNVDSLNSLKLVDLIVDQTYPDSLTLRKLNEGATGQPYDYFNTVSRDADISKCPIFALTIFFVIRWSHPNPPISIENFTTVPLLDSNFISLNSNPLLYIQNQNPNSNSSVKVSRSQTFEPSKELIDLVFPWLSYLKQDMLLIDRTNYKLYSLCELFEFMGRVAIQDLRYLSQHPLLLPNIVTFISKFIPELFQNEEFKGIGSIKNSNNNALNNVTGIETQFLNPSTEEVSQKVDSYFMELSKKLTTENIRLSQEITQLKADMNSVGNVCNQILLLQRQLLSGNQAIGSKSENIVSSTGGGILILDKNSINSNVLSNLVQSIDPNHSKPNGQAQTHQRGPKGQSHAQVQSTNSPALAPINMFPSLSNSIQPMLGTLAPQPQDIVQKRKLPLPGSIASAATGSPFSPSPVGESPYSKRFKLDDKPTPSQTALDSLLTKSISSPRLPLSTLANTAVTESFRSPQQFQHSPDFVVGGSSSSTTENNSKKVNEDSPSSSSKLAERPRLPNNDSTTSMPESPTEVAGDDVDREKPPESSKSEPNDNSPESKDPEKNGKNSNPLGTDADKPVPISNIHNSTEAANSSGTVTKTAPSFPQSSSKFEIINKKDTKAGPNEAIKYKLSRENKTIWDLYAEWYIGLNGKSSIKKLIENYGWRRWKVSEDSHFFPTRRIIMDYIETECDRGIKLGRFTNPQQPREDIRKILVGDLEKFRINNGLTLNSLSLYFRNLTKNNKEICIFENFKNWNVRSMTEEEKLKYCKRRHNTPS
Test: PBM E-score (8-mer binding enrichment) (E-score (-0.5 to 0.5)); higher = stronger / more preferred TF binding; most listed sequences are background and not binding sites
Settings: protein concentration: 100 nM; construct: GST-full length
Method in brief: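 GST-tagged yeast TFs (full-length or DNA-binding domain) were made by PURExpress in vitro transcription/translation and applied at about 100-200 nM to universal all-10-mer Agilent arrays. The arrays were made double-stranded by primer extension, on fresh or once-stripped slides. Bound protein was detected with fluorescent anti-GST, and scans were normalised with masliner. Each ungapped eight-base word, pooled with its reverse complement, received an E-score (modified Wilcoxon-Mann-Whitney statistic) from the Universal PBM Analysis Suite.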

Row | Sequence | PBM E-score
1 | AAGGGCCG | -0.0962
2 | AGACCATA | 0.0872
3 | CTTAGTGA | 0.00204
4 | ATGACTCC | -0.109
5 | CGAGCCGA | -0.337
6 | CTCGGGCA | -0.118
7 | GCAAGTCC | -0.349
8 | ATTACCAA | 0.189
9 | CCGCTACA | 0.151
10 | AACATGCC | -0.207
11 | CCCGCTCG | -0.172
12 | AGTTTGAA | -0.0736
13 | CTCTCAGC | -0.0563
14 | ACCGCAGC | 0.0827
15 | GTTTAAGA | 0.0229
16 | ACGCAGAA | 0.071
17 | ACAATTGA | -0.067
18 | CCACGGGC | 0.123
19 | ATACCAGG | -0.0373
20 | AGATTAAC | 0.0599
21 | CTGCGACA | -0.106
22 | GGGCTACC | 0.302
23 | CACACGGA | 0.0656
24 | CATCGATG | 0.0296
25 | AAGCCAAG | 0.162

Row | Sequence | PBM E-score
26 | CAATGATC | -0.034
27 | ATTGGACA | 0.0768
28 | ATAGTACG | -0.256
29 | TAGGATGA | 0.0628
30 | GTATTGTA | 0.0308
31 | ATAGTTAG | 0.0915
32 | ATGTAGAC | -0.0995
33 | CCTTACCG | 0.0425
34 | ATATTGTA | 0.0273
35 | AGCATGCA | -0.287
36 | CACTAATA | 0.249
37 | AGACACCT | 0.0186
38 | CTCAAGAG | -0.215
39 | AGCTCTAA | -0.108
40 | ATTAGCCG | -0.0242
41 | CTTGTTGC | 0.00311
42 | TAACAACA | 0.0856
43 | CACCTCCA | -0.182
44 | CACGTGCG | -0.113
45 | AAAAGCAC | 0.0387
46 | ACACGTTA | -0.12
47 | AAAAATTC | 0.0187
48 | ACCATAGC | 0.0791
49 | GAGGACCC | -0.109
50 | GATGAAGC | -0.0129

Row | Sequence | PBM E-score
51 | TCTACCCA | 0.0822
52 | GGCTCGAA | -0.0753
53 | GTCTGGTA | 0.0223
54 | CGTATGAC | 0.0685
55 | CATGGGTA | 0.00548
56 | ATAATCAG | -0.0418
57 | ACATTGTC | -0.0445
58 | AAACCCAC | -0.0238
59 | CGAGTCCC | 0.168
60 | CAATAGGG | 0.198
61 | ACCTAGCG | -0.26
62 | ATAGCTGG | -0.26
63 | AGGGGCGG | 0.15
64 | AAATTTGC | 0.109
65 | AAATACTA | 0.142
66 | ATTGACAA | -0.129
67 | CCAGCAAA | 0.076
68 | TATACCGA | 0.025
69 | AAGCCTGC | -0.0352
70 | CACGTAAG | -0.0327
71 | CCGCTGTC | -0.193
72 | CATATGGG | 0.0873
73 | CGATGAAA | 0.119
74 | AGTAAACG | 0.0961
75 | CAAATCAC | -0.062

Row | Sequence | PBM E-score
76 | AGATGCCT | 0.17
77 | CATTGTCC | -0.0689
78 | ACATCGTC | 0.112
79 | AATACTTC | -0.104
80 | CGTAACCC | 0.0924
81 | GCCGTCCC | -0.0711
82 | CCGATTAA | 0.149
83 | ACTCGACG | -0.0156
84 | CCTCGGAC | -0.102
85 | GCCTCCGC | 0.0664
86 | GTCGCACA | -0.153
87 | GCGCCAAA | 0.162
88 | GTTAACAA | 0.0556
89 | AACAGTTC | -0.0574
90 | CTCTTTGC | -0.181
91 | GAGAGGTA | -0.101
92 | CAACTTTC | 0.0761
93 | CGGTGCAG | 0.0337
94 | GGACCCCA | 0.115
95 | ACCTCTAC | 0.0304
96 | TGCAGGAA | 0.213
97 | AAAAACCG | -0.049
98 | ATAGGCTA | -0.0307
99 | CCTAATTC | 0.177
100 | CTAGACAC | -0.00777

Row | Sequence | PBM E-score
101 | GTAGATTA | 0.0121
102 | ATAGGAGC | 0.242
103 | AATTTCGA | -0.0586
104 | GAAGAGAA | 0.0371
105 | TATCTGAA | 0.133
106 | CTCGACCC | -0.131
107 | AAGACGGA | -0.156
108 | AACTACGA | -0.0767
109 | TCGCCCCA | 0.0274
110 | GCTCCTTA | 0.0759
111 | TATTGGCA | 0.185
112 | CACTAGGA | 0.132
113 | AAGCACTA | -0.0626
114 | CTATTATA | 0.117
115 | ATGTTAGA | 0.0407
116 | CCCGAGCC | 0.106
117 | CTAACACA | 0.0589
118 | CCACTACC | 0.125
119 | GGAGCGCC | 0.158
120 | CCTCCGAC | -0.107
121 | CCCAAATC | 0.238
122 | CCAGTCCA | -0.135
123 | CATCTGTC | 0.00552
124 | AACAGGAA | 0.334
125 | AGCAGGTC | -0.162

Row | Sequence | PBM E-score
126 | AGACTGCA | -0.0235
127 | GTTTTAGA | 0.0308
128 | CCTAAAGG | 0.0292
129 | AGCTGCAG | 0.0532
130 | ATCACTCG | 0.109
131 | CCAGGATC | 0.171
132 | CCGTGCCC | -0.0699
133 | AGCTCCTC | -0.14
134 | AACGATGC | 0.0153
135 | ATGTTGAA | 0.0777
136 | AGTTTCAA | 0.00219
137 | CTCAATGC | 0.0559
138 | AAACGAGT | 0.139
139 | ACGCAAAT | -0.113
140 | CGTGAAAC | 0.187
141 | GTGAGGAA | 0.0561
142 | ACAATGAT | 0.0664
143 | CGACTTGC | -0.204
144 | TACAGCTA | -0.0983
145 | TCCACGAA | 0.141
146 | GACATTAA | 0.1
147 | CCCCACGA | -0.0821
148 | CATGAGGA | 0.0155
149 | AGTCGGCC | -0.225
150 | GGGTTTAA | -0.0206

Row | Sequence | PBM E-score
151 | CGCACGGC | -0.0722
152 | ATATAAAC | -0.0249
153 | GTCGGTAA | -0.103
154 | AGACAGCG | -0.278
155 | TCGGGCAA | -0.272
156 | GTTGCGAA | 0.0274
157 | TAGATATA | 0.00474
158 | AGCCAGTA | 0.0955
159 | AAATAAAA | 0.154
160 | ACATTCAG | 0.0532
161 | ATGATTAC | -0.267
162 | CTTACCAC | -0.111
163 | GAGGAATC | 0.345
164 | AATACAAC | 0.0962
165 | AATAACCA | -0.0205
166 | ATAACATC | 0.0721
167 | CAATAGCA | -0.0743
168 | ACTACGCC | -0.0959
169 | CCCCTTAC | -0.164
170 | AATTTACA | 0.0926
171 | AGTATACG | -0.0269
172 | GTAATAGA | 0.21
